Experimental data reported in PubChem BioAssay AID624417 (National Center for Advancing Translational Sciences (NCATS), 2012).
About 6,400 (1.6%) of roughly 410,000 compounds were called active. Inconclusive results, whose numbers are uncertain, are shown with a selection of clear calls. The call rests on the fitted dose curve; in most records, active means well fitted inhibition curve with a large enough effect; inconclusive means small, poorly fitted or top-dose-only effect; inactive means no such curve, though single readings can be large or run the other way. Potencies beside an inconclusive call are fits to weak or partial responses and may not hold up.

Target: Glucagon-like peptide 1 receptor (Homo sapiens) (UniProt P43220)
UniProt P43220, sequence (P43220 whole entry, looked up): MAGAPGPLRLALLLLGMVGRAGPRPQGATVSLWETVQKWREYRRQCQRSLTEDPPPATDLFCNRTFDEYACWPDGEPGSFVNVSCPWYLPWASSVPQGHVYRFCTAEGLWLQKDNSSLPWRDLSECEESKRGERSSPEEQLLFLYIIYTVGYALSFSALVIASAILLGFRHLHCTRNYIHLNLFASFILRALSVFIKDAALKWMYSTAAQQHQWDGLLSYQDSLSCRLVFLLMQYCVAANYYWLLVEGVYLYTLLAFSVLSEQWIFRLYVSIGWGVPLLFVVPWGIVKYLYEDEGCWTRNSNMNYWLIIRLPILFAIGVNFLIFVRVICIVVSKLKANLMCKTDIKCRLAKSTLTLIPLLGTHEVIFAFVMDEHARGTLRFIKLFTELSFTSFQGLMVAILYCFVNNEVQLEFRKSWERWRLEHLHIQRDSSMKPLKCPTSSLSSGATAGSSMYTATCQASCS
Experiment: qHTS of GLP-1 Receptor Inverse Agonists (Inhibition Mode); further: nearly all actives have a fitted effect of over 55% in size
Details: HEK293 GLP-1R CRE-luciferase, luminescence, 24 h, GLP-1R form is constitutively active; activity change, negative = inhibition: at 38.3 µM (top of the series) unless noted
Procedure, shortened: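 qHTS in 1536-well format: reporter HEK293 cells expressing constitutive GLP-1R activity in DMEM + 10% Nu serum, 24 hr with compounds at 37 deg C, luminescence read after 12 min with detection reagent.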
On the % scale 0 is the no-effect control and ±100 the full control effect; potency means the concentration at half of the fitted maximal effect; tags describe the fitted curve by direction and shape.

Activity change, negative = inhibition, inactive:
O=C(O)c1ccccc1-c1ccccc1C(=O)Nc1nc2ccccc2s1 -25.7%
COc1ccc2[nH]c(=O)c(CN(C(C)=O)c3cccc(C)c3)cc2c1 5.88%
CC(C)N1CCN(Cc2ccc(C#CCCO)cc2)CC1CCO (centres undefined) 7.82%
CC(=O)C[C@H]1SC[C@@H](C(C)C)N1S(=O)(=O)c1ccc(C)cc1 -20.9%
COCCNC(=O)C1CCCN(Cc2ccc(Cl)cc2)CC1 (centres undefined) 15.6%
O=C(c1ccc2c(=O)n(CCc3ccccc3)c(=O)[nH]c2c1)N1CCN(c2ccc(Cl)cc2)CC1 -23.1%
Clc1cccc(N2CCN(c3ncnc4nc[nH]c34)CC2)c1 32.5%
COc1ccccc1NC(=O)C1=C(C)Nc2nc(SCc3cc(C)ccc3C)nn2C1c1ccccc1 (centres undefined) -1.53%
CCOc1cc(N2CCOCC2)c(OCC)cc1NC(=O)CSc1ncccc1C(=O)O 20%
CCOC(=O)/C(C)=C1\NC(C)(C)Cc2ccccc21 7.17%
COc1ccc(-c2nc(CN3CCN(C(=O)c4ccco4)CC3)c(C)o2)c(F)c1 -9.37%
O=C(Cc1cccc(C(F)(F)F)c1)N1CCCC1 0.157%
CC(=O)O[C@@H]1[C@@H](O)[C@@H](O)[C@H](Oc2c(-c3ccc(O)cc3)oc3c(CC=C(C)C)c(O)cc(O)c3c2=O)O[C@H]1C -22.6%
CCOC(=O)c1c(C)[nH]c(CCC(=O)Nc2ccccc2C(=O)OC)c1C 8.02%

Potency, inactive:
COc1ccc(-n2c(-c3ccco3)nc3c(cnn3-c3ccc(C)cc3)c2=O)cc1

Potency, inconclusive:
CCOC(=O)c1cc(-c2ccc(C)cc2)n(CCC(=O)Nc2ccc(OC)c(OC)c2)c1C 11.2 µM [inhibitor, partial curve, poor fit]
O=C(NC1CCCCC1c1ccccc1)c1ccccc1 (centres undefined) 28.2 µM [inhibitor, single point]
Cc1ccc(Cl)cc1N1CCN(C(=O)Cc2c(C(=O)O)[nH]c3ccc(Cl)cc23)CC1 8.91 µM [inhibitor, partial curve, poor fit]
COc1ccc2nc(NC(=S)N(C)C)sc2c1 1 µM [inhibitor, full curve, poor fit]
COCC(=O)Oc1c(Sc2ccccc2[N+](=O)[O-])c(C)nn1C(C)(C)C 10 µM [inhibitor, partial curve, poor fit]
COc1cccc(C(O)c2nc(-c3ccc(F)c(Cl)c3)cs2)c1 (centres undefined) 28.2 µM [inhibitor, single point]
Cc1cc(C)cc(-n2ccnc2SCC(=O)Nc2nccs2)c1 10 µM [inhibitor, partial curve, poor fit]
Cc1cccc(-c2nc(SCC(=O)Nc3ccc4c(c3)OCO4)c(-c3ccccc3)[nH]2)c1 8.91 µM [inhibitor, partial curve, poor fit]
COC(=O)c1c(-c2cc(OC)cc(OC)c2)sc2ccc(OC)cc12 28.2 µM [inhibitor, single point]
CC1=Cc2ccccc2C(C#N)N1C(=O)c1ccccc1 (centres undefined) 10 µM [inhibitor, single point]
COc1ccc([N+](=O)[O-])cc1N(CC(O)CN1CCCCC1)S(=O)(=O)c1ccc(C)cc1 (centres undefined) 4.47 µM [inhibitor, partial curve, poor fit]
Cc1cc(C)cc(N2C(=O)CN(Cc3sccc3C)C2=S)c1 22.4 µM [inhibitor, partial curve, poor fit]
CCn1c(C)c(C)c2cc(C(=O)NCCc3ccc(C)cc3)ccc21 28.2 µM [inhibitor, single point]
Cc1nc2ccc(NC(=O)C3CCN(S(=O)(=O)c4cccs4)CC3)cc2s1 7.94 µM [inhibitor, partial curve, poor fit]
CC1(C)CC(=O)C=C(c2ccc(Cl)c(C(F)(F)F)c2)C1 10 µM [inhibitor, partial curve]
O=C(CSc1nnc(COc2ccccc2F)n1-c1ccccc1)NCc1ccco1 7.94 µM [inhibitor, partial curve]
Cc1ccc(NC(=O)CCOc2ccccc2C)cc1F 31.6 µM [inhibitor, partial curve, poor fit]
CCOc1c(Br)cc(C(=O)OCC(=O)N2CCc3ccccc3C2)cc1OC 8.91 µM [inhibitor, partial curve, poor fit]
CCOc1ccccc1C1CC(c2ccc(Cl)cc2)Nc2nc(N)nn21 (centres undefined) 11.2 µM [inhibitor, single point]
Cc1cccc(C(=O)Nc2ccccc2C(=O)NCc2ccco2)c1 28.2 µM [inhibitor, single point]
CNC(=O)Nc1cccc(-c2cc(-c3c(Cl)cccc3Cl)no2)c1 3.98 µM [inhibitor, partial curve, poor fit]
CC1CC(C)CN(CCCNC(=O)c2ccc(CS(=O)(=O)Cc3cccc(Cl)c3)o2)C1 (centres undefined) 28.2 µM [inhibitor, single point]
CC(C)NC(=O)c1ccc(N(Cc2ccc(Cl)cc2)S(C)(=O)=O)cc1 28.2 µM [inhibitor, single point]
O=C(c1cccs1)N1CCCc2cc(NS(=O)(=O)c3ccc(F)cc3)ccc21 10 µM [inhibitor, partial curve]
CC(C)Cn1c(/C=C/c2ccc(F)cc2)nc2ccccc21 10 µM [inhibitor, single point]
CCOC(=O)C1CSC(CC(=O)Nc2ccc(Cl)c(Cl)c2)C(=O)N1 (centres undefined) 4.47 µM [inhibitor, full curve, poor fit]
CC(NC(=O)c1c(O)c2ccccc2n(C)c1=O)c1ccccc1 (centres undefined) 2.51 µM [inhibitor, partial curve, poor fit]
COc1ccc(N(C(C)=O)S(=O)(=O)c2cc(OC)ccc2OC)cc1 28.2 µM [inhibitor, single point]
Cc1ccc(OCCCC(=O)Nc2ccc(N3CCOCC3)cc2)c(C)c1 28.2 µM [inhibitor, single point]
CC(C)=CCN1CCN(CCC2=C(C)CCCC2(C)C)CC1CCO (centres undefined) 12.6 µM [inhibitor, partial curve, poor fit]
Cc1ccc(NC(=O)C(C)SCC(=O)Nc2ccc(F)cc2)cc1S(=O)(=O)N1CCOCC1 (centres undefined) 11.2 µM [inhibitor, partial curve]
O=C(Nc1cc(-c2ccccc2)nn1-c1c(Cl)cccc1Cl)c1ccc(F)cc1 11.2 µM [inhibitor, partial curve, poor fit]
Cc1ccc(CNC(=O)c2ccccc2NC(=O)CN2CCN(C)CC2)cc1 31.6 µM [inhibitor, partial curve, poor fit]
CCCCOCc1cc(CN2CCN(c3cccc(Cl)c3)CC2)c(O)c2ncccc12 5.62 µM [inhibitor, partial curve, poor fit]
O=S(=O)(/N=C(/Nc1ccccn1)c1ccccc1)c1ccc(F)cc1 6.31 µM [inhibitor, partial curve, poor fit]
O=C(C1=NNCC1c1ccc(Cl)cc1)C1CO1 (centres undefined) 28.2 µM [inhibitor, single point]
CCOc1ccc(CN2CCCC(CO)(Cc3ccccc3F)C2)cc1 (centres undefined) 11.2 µM [inhibitor, partial curve, poor fit]
Cc1ccc(NCC(=O)N/N=C/c2cccc(Oc3ccccc3)c2)cc1 20 µM [inhibitor, single point]
O=C(NCCCC1CCCC1)C1CCC(=O)N(Cc2cccc(F)c2)C1 (centres undefined) 11.2 µM [inhibitor, partial curve, poor fit]
Cc1ccc(C(=O)NNCC(=O)Nc2ccc(Cl)cc2F)cc1 11.2 µM [inhibitor, partial curve, poor fit]
O=c1cc2c(nn1Cc1c(Cl)cccc1Cl)-c1ccccc1CC2 28.2 µM [inhibitor, single point]
Cc1nnc(SCC(=O)N2c3ccccc3C(C)(c3ccc(Cl)cc3)CC2(C)C)s1 (centres undefined) 3.55 µM [inhibitor, partial curve, poor fit]
COc1ccc(NC(=O)CN(C)C(=O)c2ccc(N3CCCCCC3)c([N+](=O)[O-])c2)cc1 8.91 µM [inhibitor, partial curve]
COc1ccccc1NC(=O)CN(Cc1ccco1)C(=O)c1cc(Cl)c(OC)c(OC)c1 5.62 µM [inhibitor, partial curve, poor fit]
NS(=O)(=O)c1ccc(CCNC(=O)CN2CCN(Cc3cccc4ccccc34)CC2)cc1 10 µM [inhibitor, single point]
CCO[C@@H]1OC(C(=O)N2CCN(Cc3ccccc3)CC2)=C[C@H](c2ccc(C(F)(F)F)cc2)[C@H]1CCCO 11.2 µM [inhibitor, single point]
Cc1c(Br)cccc1NC(=O)C1(C)CCN1Cc1ccccc1OC(F)F (centres undefined) 31.6 µM [inhibitor, partial curve, poor fit]

Potency, active:
COc1cccc(CN(C)CC(=O)Nc2cc(S(=O)(=O)N3CCCC3)ccc2Cl)c1OC 7.94 µM
O=C(CSc1ccccc1)Nc1cc(Cl)ccc1Oc1ccccc1 11.2 µM
